Test results published in the supplement of paper PMC8728848.
The other results are listed elsewhere or left out.

Columns and labels:
Test in all cases: glycan array binding signal (z-score within array); higher = stronger binding
Details in all cases: glycan notation: IUPAC condensed, linker removed
[1] = molecular target: Gal(b1-4)GlcNAc(b1-2)[Gal(b1-4)GlcNAc(b1-4)]Man(a1-3)[Gal(b1-4)GlcNAc(b1-2)[Gal(b1-4)GlcNAc(b1-6)]Man(a1-6)]Man(b1-4)GlcNAc(b1-4)GlcNAc
Method in brief: (§1)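 The binding signal is a Z-score computed within each array. Data were drawn from 3228 arrays in the Consortium for Functional Glycomics database, restricted to those with a known protein sequence. Scores were averaged over arrays of the same protein sequence at different concentrations or buffers, and over linkers, and negative values can be taken as non-binding.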

[2] = molecular target: Gal(b1-4)GlcNAc(b1-2)[Gal(b1-4)GlcNAc(b1-4)]Man(a1-3)[GlcNAc(b1-4)][Gal(b1-4)GlcNAc(b1-2)Man(a1-6)]Man(b1-4)GlcNAc(b1-4)GlcNAc
Method in brief: as §1

[3] = molecular target: Gal(b1-4)GlcNAc(b1-2)[Gal(b1-4)GlcNAc(b1-6)]Man(a1-6)[GlcNAc(b1-4)][Gal(b1-4)GlcNAc(b1-2)Man(a1-3)]Man(b1-4)GlcNAc(b1-4)GlcNAc
Method in brief: as §1

[4] = molecular target: Gal(b1-4)GlcNAc(b1-3)Gal(b1-3)GlcNAc
Method in brief: as §1

[5] = molecular target: Gal(b1-4)GlcNAc(b1-3)Gal(b1-4)Glc
Method in brief: as §1

[6] = molecular target: Gal(b1-4)GlcNAc(b1-3)Gal(b1-4)GlcNAc
Method in brief: as §1

[7] = molecular target: Gal(b1-4)GlcNAc(b1-3)Gal(b1-4)GlcNAc(b1-3)Gal(b1-4)GlcNAc
Method in brief: as §1

[8] = molecular target: Gal(b1-4)GlcNAc(b1-3)Gal(b1-4)[Fuc(a1-3)GlcNAc(b1-6)]Gal(b1-4)Glc
Method in brief: as §1

[9] = molecular target: Gal(b1-4)GlcNAc(b1-3)Gal(b1-4)[Fuc(a1-3)]GlcNAc(b1-3)Gal(b1-4)[Fuc(a1-3)]GlcNAc
Method in brief: as §1

[10] = molecular target: Gal(b1-4)GlcNAc(b1-3)GalNAc
Method in brief: as §1

[11] = molecular target: Gal(b1-4)GlcNAc(b1-3)[Gal(b1-4)GlcNAc(b1-6)]Gal(b1-4)GlcNAc
Method in brief: as §1

[12] = molecular target: Gal(b1-4)GlcNAc(b1-3)[Gal(b1-4)GlcNAc(b1-6)]GalNAc
Method in brief: as §1

[13] = molecular target: Gal(b1-4)GlcNAc(b1-3)[GlcNAc(b1-6)]Gal(b1-4)GlcNAc
Method in brief: as §1

[14] = molecular target: Gal(b1-4)GlcNAc(b1-6)Gal(b1-4)GlcNAc
Method in brief: as §1

[15] = molecular target: Gal(b1-4)GlcNAc(b1-6)GalNAc
Method in brief: as §1

[16] = molecular target: Gal(b1-4)GlcNAc(b1-6)[Gal(b1-3)]GalNAc
Method in brief: as §1

[17] = molecular target: Gal(b1-6)Gal
Method in brief: as §1

[18] = molecular target: Gal3S(b1-3)GalNAc
Method in brief: as §1

[19] = molecular target: Gal3S(b1-3)GlcNAc
Method in brief: as §1

[20] = molecular target: Gal3S(b1-3)[Fuc(a1-4)]GlcNAc
Method in brief: as §1

[21] = molecular target: Gal3S(b1-4)Glc
Method in brief: as §1

[22] = molecular target: Gal3S(b1-4)Glc6S
Method in brief: as §1

[23] = molecular target: Gal3S(b1-4)GlcNAc
Method in brief: as §1

[24] = molecular target: Gal3S(b1-4)GlcNAc6S
Method in brief: as §1

[25] = molecular target: Gal3S(b1-4)[Fuc(a1-3)]Glc
Method in brief: as §1

[26] = molecular target: Gal3S(b1-4)[Fuc(a1-3)]Glc6S
Method in brief: as §1

[27] = molecular target: Gal3S4S(b1-4)GlcNAc
Method in brief: as §1

[28] = molecular target: Gal3S6S(b1-4)GlcNAc
Method in brief: as §1

[29] = molecular target: Gal3S6S(b1-4)GlcNAc6S
Method in brief: as §1

[30] = molecular target: Gal4S(b1-4)GlcNAc
Method in brief: as §1

B1: CwpV (Clostridium difficile), B6EFG6 (protein)
chain: MKIPKKIAAMLTVTMIAGSSTAGIASAQTVATNLTGQERYETAVKISQDGWKNADEVVIVNDSSIADALSATPFAKAKNAPILLTSKDKLNDKTKAEIQRLKAKKVYLIGGTSVLSTNIEKEIKDLKISFERISGAERYQTSLELAKKLDAISDVKKIAVVNGEKGLADAVSVGAPAAQNNMPVILADSKNGTAVADKFIKDAGITQSYVVGGESSISEAVKNKLPNSTRLGGTDRNDTNAKVIKEFYKKTDLKNAYVTKDGMNKQDQLIDALAVGVLGAKNQSPVVLVGKNLSASQKSLVNSKSFDKITKVGGNGNETAFNEMKSLQEVKTVEAKTISELKSAIDKATANDVINFKPTSEVKEAFTIQTDKAVTVNLNGTYTKTVTINMPNGDVNNYAKVDDVVIDDVKDGTFVNYGKITNLKVNDKNGAKIENNSKGEIGSLTVASGASQVKVTNGGKITTVTNNSKGTTIDNKGTISSVKGDNSPTISGNSPSSNSSGGSSSSGGSSGGSSGGSSSSKVGQIKFSATDKQIKMASGDKTVDPSDNTYILKLTNGTVKDGDVKANVKVAGLPSGLDYTAVGNRSANTITITVSGTTSQSIQNDLNNVSVLVKAGAVSGTGATDSIANTTFEIKKYVAAPAVGQLTFDATDKQIKMASGDKTVDPSDDTYVLTLTKGTAKDGDIKANVEVTGLPSGLDYTAEGDSSANTITIPVSGTASPAVQTDLDNVSVLVKAGAVSETTATDSAANATFEVKKYVAPAVGQLTFDATDKQIKMASGDKTVDPSDDTYVLTLTKGTAKDGDIKANVEVTGLPSGLDYTAEGDSSANTITITVSGTASQAVQTDLDNVSVLVKAGAVSETTATDSAANATFEVKKYVAPAIGQLTFDATDKQIKMASGDKTVDPSDDTYVLTLTKGTAKDGDIKANVEVTGLPSGLDYTAEGDSSANTITITVSGTASQAVQTDLDNVSVLVKAGAVSETTATDSAANATFEVKKHASDPISTIGKISSGLSSLFNILK
- glycan array binding signal (z-score) [1]: -0.343
- glycan array binding signal (z-score) [2]: -0.002
- glycan array binding signal (z-score) [3]: -0.283
- glycan array binding signal (z-score) [4]: -0.333
- glycan array binding signal (z-score) [5]: -0.327
- glycan array binding signal (z-score) [6]: 0.373
- glycan array binding signal (z-score) [7]: 0.96
- glycan array binding signal (z-score) [8]: -0.324
- glycan array binding signal (z-score) [9]: -0.117
- glycan array binding signal (z-score) [10]: -0.289
- glycan array binding signal (z-score) [11]: -0.349
- glycan array binding signal (z-score) [12]: -0.34
- glycan array binding signal (z-score) [13]: -0.322
- glycan array binding signal (z-score) [14]: -0.242
- glycan array binding signal (z-score) [15]: -0.276
- glycan array binding signal (z-score) [16]: -0.313
- glycan array binding signal (z-score) [17]: -0.297
- glycan array binding signal (z-score) [18]: -0.318
- glycan array binding signal (z-score) [19]: -0.305
- glycan array binding signal (z-score) [20]: -0.3
- glycan array binding signal (z-score) [21]: -0.29
- glycan array binding signal (z-score) [22]: -0.201
- glycan array binding signal (z-score) [23]: -0.202
- glycan array binding signal (z-score) [24]: -0.239
- glycan array binding signal (z-score) [25]: 0.044
- glycan array binding signal (z-score) [26]: 0.036
- glycan array binding signal (z-score) [27]: 0.151
- glycan array binding signal (z-score) [28]: -0.333
- glycan array binding signal (z-score) [29]: -0.338
- glycan array binding signal (z-score) [30]: -0.073
